This is an account of results in patent publication US20200325212A1 (CITY OF HOPE, published 2020).

To fix the notation:
T1: CD86-Fc (human CD86 extracellular domain fused to human IgG1) (human, UniProt P42081 24-247)
T1 construct: extracellular domain; Expressed in insect cells with a gp67 secretion signal; No linker between CD86 and IgG1 is described; also called recombinant human CD86-Fc; recombinant bivalent CD86-Fc; not shown: human IgG1, UniProt P01857
T1 sequence (looked up): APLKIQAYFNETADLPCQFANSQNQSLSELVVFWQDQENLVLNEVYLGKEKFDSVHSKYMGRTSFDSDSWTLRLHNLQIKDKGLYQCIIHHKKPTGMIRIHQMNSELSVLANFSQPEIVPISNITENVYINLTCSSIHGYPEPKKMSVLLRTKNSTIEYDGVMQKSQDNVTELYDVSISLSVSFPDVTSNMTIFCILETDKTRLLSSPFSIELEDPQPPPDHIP

B1: CTLA4-Fc variant E31S (Fc fusion)
chain: not shown
notes: Whole fusion (CTLA4 extracellular domain, MMP9 linker, IgG1 Fc) with E31S; also called E31S CTLA-4
B2: CTLA4-Fc variant E31S R33E T51H (Fc fusion)
chain: MHVAQPAVVLASSRGIASFVCEYASPGKATSVEVTVLRQADSQVTEVCAAHYMMGNELTFLDDSICTGTSSGNQVNLTIQGLRAMDTGLYICKVELMYPPPYYLGIGNGTQIYVIDPEPCPDSDGSRSGGTSGGGSVPLSLYSGSTSGSGKSSEGSGQ[skipping human IgG1 Fc and a few adjoining residues]
notes: Whole fusion (CTLA4 extracellular domain, MMP9 linker, IgG1 Fc) with E31S, R33E and T51H; also called E31S, R33E, T51H CTLA-4
B3: CTLA4-Fc variant E31A R33A (Fc fusion)
chain: MHVAQPAVVLASSRGIASFVCEYASPGKATAVAVTVLRQADSQVTEVCAATYMMGNELTFLDDSICTGTSSGNQVNLTIQGLRAMDTGLYICKVELMYPPPYYLGIGNGTQIYVIDPEPCPDSDGSRSGGTSGGGSVPLSLYSGSTSGSGKSSEGSGQ[skipping human IgG1 Fc and a few adjoining residues]
notes: Whole fusion (CTLA4 extracellular domain, MMP9 linker, IgG1 Fc) with E31A and R33A; also called E31A and R33A CTLA-4

For this experiment, the target named is T1, CD86-Fc (human CD86 extracellular …). Description: analytical SEC (relative A230) of an equimolar mixture with CD86-Fc.
Regarding B1, the binding result was “binds”.
With B2 the entry was “no binding”; with B3, “binds”.
